Experimental data published in the supplement of paper PMC10369915.
The list shows a part of the results. Rule as the data show it: active = 3.2 or more and inactive = the rest. Only a few entries rise above the background.

Key:
Test in all cases: enrichment score (SH2-bound / input frequency) (ratio); bacterial display of known human phosphotyrosine sites (pTyr-Var adds point mutants) read by sequencing; higher = stronger binding; tyrosines were phosphorylated by kinases first
Details in all cases: peptide library: pTyr-Var
[1] = biological target: SHP2 C-SH2 domain E139D
[2] = biological target: SHP2 C-SH2 domain wild-type
[3] = biological target: SHP2 N-SH2 domain L43F
[4] = biological target: SHP2 N-SH2 domain T42A
[5] = biological target: SHP2 N-SH2 domain T52S
[6] = biological target: SHP2 N-SH2 domain wild-type
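Also: displayed peptides selected on beads carrying the immobilized SH2 domain, with library peptides lacking any tyrosine serving as negative controls.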

Binder | enrichment score [1] | enrichment score [2] | enrichment score [3] | enrichment score [4] | enrichment score [5] | enrichment score [6]
TNQVICLNPPI [DYNC1H1_Y970_Y970C] | inactive: 0.905 | inactive: 0.832 | inactive: 0.887 | inactive: 0.663 | inactive: 0.814 | inactive: 1.18
GMEIVYVYVKK [DNAI2_Y5] | inactive: 1.99 | inactive: 2.15 | inactive: 1.84 | inactive: 1.59 | inactive: 1.81 | inactive: 1.95
KTDVHYRSLGG [DYSF_Y1858] | inactive: 0.513 | inactive: 0.458 | inactive: 0.491 | inactive: 0.402 | inactive: 0.396 | inactive: 0.555
DRFANYIEKVR [DES_Y122] | inactive: 1.01 | inactive: 1.02 | inactive: 0.883 | inactive: 1.08 | inactive: 0.944 | inactive: 0.918
LRAGVYPEKDQ [DNM2_Y626] | inactive: 1.03 | inactive: 1.01 | inactive: 1.24 | inactive: 1.02 | inactive: 1.01 | inactive: 1.1
KPMDTYFDSTR [DYNC2H1_Y2230_YF] | inactive: 0.661 | inactive: 0.742 | inactive: 0.657 | inactive: 0.654 | inactive: 0.624 | inactive: 0.906
YADGVYQALEE [DUOX2_Y70] | inactive: 0.644 | inactive: 0.666 | inactive: 0.606 | inactive: 0.56 | inactive: 0.852 | inactive: 0.576
GFPVHYTGVSN [DNMT3B_Y815_D817G] | inactive: 0.992 | inactive: 1.36 | inactive: 0.938 | inactive: 3.14 | inactive: 1.06 | inactive: 1.06
VTNHIYTWVDP [DFNB31_Y234] | inactive: 1.57 | inactive: 1.34 | inactive: 1.25 | inactive: 1.61 | inactive: 1.56 | inactive: 1.33
MKTISYETLIA [DOCK10_Y1350] | inactive: 1.15 | inactive: 1.19 | inactive: 1.42 | active: 3.36 | inactive: 1.35 | inactive: 1.29
VILENYGADID [DNAH5_Y596_L591V] | inactive: 0.851 | inactive: 0.641 | inactive: 0.832 | inactive: 0.797 | inactive: 1.08 | inactive: 0.836
DRFDNYIEKVR [DES_Y122_A120D] | inactive: 0.812 | inactive: 0.827 | inactive: 0.918 | inactive: 0.815 | inactive: 0.87 | inactive: 0.974
GLPQTYCVSGP [DYSF_Y1684] | inactive: 0.845 | inactive: 0.843 | inactive: 0.965 | inactive: 0.709 | inactive: 0.78 | inactive: 1.01
YLGRDYLETLM [DUS3L_Y610] | inactive: 1.02 | inactive: 1.43 | inactive: 0.993 | inactive: 1.01 | inactive: 1.07 | inactive: 1
GMSQAYSFSQR [DES_Y5_S7F] | inactive: 0.78 | inactive: 0.795 | inactive: 0.724 | inactive: 0.751 | inactive: 0.717 | inactive: 0.79
GITTGYLVLKE [DNMT3B_Y588_A585T] | inactive: 0.989 | inactive: 1.13 | inactive: 0.86 | inactive: 2.91 | inactive: 0.86 | inactive: 1.01
MDQAEYQAKIR [DHX58_Y518] | inactive: 0.49 | inactive: 0.441 | inactive: 0.46 | inactive: 0.385 | inactive: 0.625 | inactive: 0.429
DQIDTYELSGA [DNM1_Y354_G359A] | inactive: 0.757 | inactive: 0.668 | inactive: 0.748 | inactive: 0.468 | inactive: 0.551 | inactive: 0.711
SEASGYQDNIA [DES_Y363] | inactive: 0.436 | inactive: 0.542 | inactive: 0.52 | inactive: 0.401 | inactive: 0.591 | inactive: 0.65

Binder | enrichment score [1] | enrichment score [2] | enrichment score [3] | enrichment score [4] | enrichment score [5] | enrichment score [6]
QEMMEYRRQIQ [DES_Y324_H326R] | inactive: 1.03 | inactive: 0.752 | inactive: 0.66 | inactive: 0.724 | inactive: 0.765 | inactive: 0.909
NPSYNYEIVNQ [DYNC1H1_Y3379_R3384Q] | inactive: 0.399 | inactive: 0.419 | inactive: 0.426 | inactive: 0.404 | inactive: 0.562 | inactive: 0.566
TNQVIYLNPPI [DYNC1H1_Y970] | inactive: 1.05 | inactive: 1.16 | inactive: 0.975 | inactive: 3.01 | inactive: 0.943 | inactive: 1.04
MKMISYETLIA [DOCK10_Y1350_T1347M] | inactive: 1.26 | inactive: 1.25 | inactive: 1.9 | active: 3.83 | inactive: 1.82 | inactive: 1.31
GIATGYLVLKE [DNMT3B_Y588] | inactive: 0.987 | inactive: 1.58 | inactive: 0.947 | active: 3.22 | inactive: 1.09 | inactive: 0.983
YADGVYLALEE [DUOX2_Y70_Q71L] | inactive: 0.789 | inactive: 0.795 | inactive: 0.995 | inactive: 0.823 | inactive: 0.914 | inactive: 0.855
DNPAKYFILEN [DPP10_Y512_S517N] | inactive: 0.979 | inactive: 0.939 | inactive: 0.824 | inactive: 0.841 | inactive: 0.978 | inactive: 1.19
LGQRIYQYIRS [DYRK1B_Y271_Q275R] | inactive: 2.56 | inactive: 2.07 | inactive: 2.08 | inactive: 2.2 | inactive: 2.33 | inactive: 2.11
EFLRNYFTDKA [DSG2_Y775] | inactive: 1.09 | inactive: 1.28 | inactive: 1.19 | inactive: 0.921 | inactive: 0.796 | inactive: 1.14
RLRIDYERVSQ [DSP_Y1542] | inactive: 1.34 | inactive: 1.51 | inactive: 1.52 | inactive: 1.33 | inactive: 1.21 | inactive: 1.55
QRIFQYIQSRF [DYRK1B_Y273_YF] | inactive: 1.4 | inactive: 1.05 | inactive: 0.786 | inactive: 0.989 | inactive: 0.966 | inactive: 0.829
FFIMMYTGSNV [DNAJC13_Y1131] | inactive: 0.919 | inactive: 1.14 | inactive: 0.888 | inactive: 0.836 | inactive: 1.02 | inactive: 0.91
NPSFNYEIVNR [DYNC1H1_Y3379_YF] | inactive: 0.812 | inactive: 0.716 | inactive: 0.831 | inactive: 0.795 | inactive: 0.681 | inactive: 0.795
EKEKKYMLPLD [DNM2_Y563] | inactive: 0.97 | inactive: 0.743 | inactive: 0.689 | inactive: 0.562 | inactive: 0.875 | inactive: 0.999
RLPSGYGLAYR [DLK1_Y262] | inactive: 1.11 | inactive: 0.858 | inactive: 0.901 | inactive: 0.883 | inactive: 0.921 | inactive: 0.917
KPMDTYYDSTR [DYNC2H1_Y2230] | inactive: 0.648 | inactive: 0.647 | inactive: 0.747 | inactive: 0.692 | inactive: 0.788 | inactive: 0.764
HICTAYELVLA [DHCR24_Y190] | inactive: 1.28 | inactive: 1.57 | inactive: 1.5 | inactive: 1.06 | inactive: 1.01 | inactive: 2.11
RKLASYRSCLL [DHX37_Y1080] | inactive: 0.747 | inactive: 0.868 | inactive: 0.581 | inactive: 0.764 | inactive: 0.829 | inactive: 0.689
